Assay results reported in the supplement of paper PMC9446081.
The campaign covered roughly 39,000 compounds. About 220 (0.56%) showed activity. Some of the results follow.

test system: Escherichia coli K-12 BW25113; experiment: relative growth (OD600 normalised to plate interquartile mean) (fraction); higher = less growth inhibition, active = 0.2 or less; settings: 50 µM; LB; incubation time: overnight (16-24 h)
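Further: static incubation at 37 °C against the wild-type strain, values averaged over two biological replicates.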

Row | Structure (SMILES) | relative growth
1 | C[C@H](CO)N1C[C@H](C)[C@@H](CN(C)Cc2ccc(C(F)(F)F)cc2)OCCCC[C@H](C)Oc2ccc(NS(=O)(=O)c3ccc(Cl)cc3)cc2C1=O | inactive: 1.05
2 | CC(C)NC(=O)Nc1cccc2c1O[C@@H](CN(C)Cc1ccc(Oc3ccccc3)cc1)[C@H](C)CN([C@H](C)CO)C2=O | inactive: 1
3 | C[C@H](NC(=O)C[C@@H]1CC[C@H](NC(=O)CN2CCOCC2)[C@H](CO)O1)c1ccccc1 | inactive: 1.02
4 | O=c1cc(-c2ccccc2)oc2cc(O)c(O)c(O)c12 | inactive: 0.942
5 | C=CCC[C@@H](Cc1ccc(F)cc1)C(=O)OC[C@@H](Cc1c[nH]c2ccccc12)NC(=O)[C@@H](CC=C)CC(=O)N[C@H](CO)Cc1ccccc1 | inactive: 1.04
6 | C=c1ccccc1=C1NN=C(SCC(=O)OC)O1 | inactive: 0.962
7 | CC(C)NC(=O)N[C@H]1C=C[C@@H](CC(=O)NCCCN(C)C)O[C@H]1CO | inactive: 1.01
8 | Cl.NCC(=O)CCC(=O)O | inactive: 1.22
9 | COc1ccc(S(=O)(=O)N2C[C@H](O)COC[C@H]3O[C@@H](CC(=O)NCCCN4CCOCC4)CC[C@@H]32)cc1 | inactive: 0.976
10 | NNS(=O)(=O)c1ccc(Oc2ccc(S(=O)(=O)NN)cc2)cc1 | inactive: 1.01
11 | C[C@@H]1CN([C@H](C)CO)C(=O)Cc2cc(NS(=O)(=O)c3cn(C)cn3)ccc2O[C@@H]1CN(C)Cc1ccc(C(=O)O)cc1 | inactive: 1.03
12 | Cc1noc(C)c1NC(=O)N(C)C[C@@H]1Oc2ccc(NC(=O)Cn3cnnn3)cc2C(=O)N([C@@H](C)CO)C[C@@H]1C | inactive: 0.989
13 | CC(NC(CCc1ccccc1)C(=O)O)C(=O)N1Cc2ccccc2CC1C(=O)O (stereo unspecified) | inactive: 1.08
14 | ON=C1/C(=N\O)CC2(C/C1=N/O)OCCO2 | inactive: 0.832
15 | CC(C)NC(=O)N(C)C[C@H]1Oc2c(NS(=O)(=O)c3cccs3)cccc2C(=O)N([C@@H](C)CO)C[C@@H]1C | inactive: 0.986
16 | O=C(C1=C[C@@H](c2ccc3c(c2)OCO3)C[C@@H](OCCCCO)O1)N1CCN(Cc2ccc3c(c2)OCO3)CC1 | inactive: 1.02
17 | CC(C)CC#Cc1cnc2c(c1)C(=O)N([C@@H](C)CO)C[C@H](C)[C@@H](CN(C)C(=O)CCN1CCCCC1)O2 | inactive: 0.989
18 | O=C1C=CC(=O)N1 | active: 0.0291
19 | Cc1ccc(S(=O)(=O)Nc2ccc3c(c2)C(=O)N([C@@H](C)CO)C[C@H](C)[C@H](CN(C)Cc2ccccc2)OCCCC[C@@H](C)O3)cc1 | inactive: 0.99
20 | COc1ccc(CN(C)C[C@@H]2OCCCC[C@H](C)Oc3ccc(NC(=O)c4ccncc4)cc3C(=O)N([C@@H](C)CO)C[C@H]2C)cc1 | inactive: 1.04
21 | COc1cccc(NC(=O)N2C[C@@H](O)COC[C@@H]3O[C@H](CC(=O)NC4Cc5ccccc5C4)CC[C@H]32)c1 | inactive: 1

Row | Structure (SMILES) | relative growth
22 | C=C/C=C/C[C@@H](C)[C@@H](O)[C@H]1C(=O)N[C@@H](CC)C(=O)N(C)CC(=O)N(C)[C@@H](CC(C)C)C(=O)N[C@@H](C(C)C)C(=O)N(C)[C@@H](CC(C)C)C(=O)N[C@@H](C)C(=O)N[C@H](C)C(=O)N(C)[C@@H](CC(C)C)C(=O)N(C)[C@@H](CC(C)C)C(=O)N(C)[C@@H](C(C)C)C(=O)N1C | inactive: 1.02
23 | C[C@@H]1CN([C@@H](C)CO)C(=O)Cc2cc(NC(=O)Cn3cnnn3)ccc2O[C@H]1CN(C)S(=O)(=O)c1ccc(Cl)cc1 | inactive: 1.03
24 | C[C@@H]1CN([C@@H](C)CO)C(=O)c2cc(NC(=O)Cc3ccccc3)ccc2O[C@@H](C)CCCCO[C@@H]1CN(C)S(=O)(=O)c1ccc(Cl)cc1 | inactive: 1.04
25 | Cc1sc(N)nc1-c1ccccc1 | inactive: 0.978
26 | O=C1CCC(=O)N1c1nccs1 | inactive: 1.03
27 | CN1CCN(C(=O)C[C@H]2CC[C@@H]3[C@@H](COc4ccc(NC(=O)C5CCOCC5)cc4C(=O)N3C)O2)CC1 | inactive: 1.02
28 | CC(C)NC(=O)Nc1ccc2c(c1)C(=O)N([C@@H](C)CO)C[C@@H](C)[C@@H](CN(C)Cc1ccc(-c3ccccc3)cc1)O2 | inactive: 0.994
29 | C[C@@H]1CN([C@H](C)CO)C(=O)c2cc(NC(=O)C3CCOCC3)ccc2O[C@H]1CN(C)S(=O)(=O)c1ccc(Cl)cc1 | inactive: 1.01
30 | COc1ccc(C#Cc2ccc3c(c2)O[C@@H](CN(C)C(C)=O)[C@@H](C)CN([C@@H](C)CO)S3(=O)=O)cc1 | inactive: 1.03
31 | CNC[C@H]1Oc2ccc(NC(=O)CCN3CCOCC3)cc2CC(=O)N([C@@H](C)CO)C[C@@H]1C | inactive: 0.977
32 | Cc1ccc(NC(=O)Cn2ccn(CCc3ccc(S(N)(=O)=O)cc3)c(=O)c2=O)cc1F | inactive: 0.98
33 | C[C@H]1CCCCO[C@H](CN(C)C(=O)Nc2cccc3ccccc23)[C@@H](C)CN([C@@H](C)CO)C(=O)c2cc(NS(C)(=O)=O)ccc2O1 | inactive: 0.972
34 | CCCCNC(=O)N1C[C@@H]2[C@H](CN)[C@@H]2C1 | inactive: 0.989
35 | C[C@@H]1CN([C@@H](C)CO)C(=O)c2cc(NC(=O)C3CCCCC3)ccc2O[C@@H](C)CCCCO[C@H]1CN(C)Cc1ccc(Cl)c(Cl)c1 | inactive: 1.01
36 | Cc1noc(C)c1NC(=O)Nc1ccc2c(c1)C(=O)N([C@@H](C)CO)C[C@@H](C)[C@@H](CN(C)Cc1ccc(Oc3ccccc3)cc1)O2 | inactive: 0.98
37 | CC(=O)Oc1cc(OC(C)=O)c2c(c1)O[C@H](c1ccc(OC(C)=O)c(OC(C)=O)c1)[C@H](OC(C)=O)C2 | inactive: 1.01
38 | CS(=O)(=O)N1CCc2ccc(N)cc2C1 | inactive: 0.947
39 | C[C@H](CO)N1C[C@H](C)[C@H](CN(C)C(=O)Nc2cccc3ccccc23)OCCCC[C@H](C)Oc2ccc(NC(=O)Nc3ccccc3)cc2C1=O | inactive: 0.999
40 | Cc1noc(C)c1NC(=O)N(C)C[C@H]1Oc2ccc(NC(=O)CCCN(C)C)cc2C(=O)N([C@@H](C)CO)C[C@H]1C | inactive: 1.02
41 | S=c1ccss1 | inactive: 0.99
